{
  "source": "PubChem BioAssay (NCATS)",
  "key": {"[1]": {"assay": "P-glycoprotein substrates identified in KB-3-1 adenocarcinoma cell line, qHTS therapeutic library screen (AID 1346986); note: nearly all actives have a fitted effect of over 60% in size;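 note: potency is for cytotoxicity meaning loss of cell viability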", "summary_of_the_method": "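Viability by CellTiter-Glo after 72 h compound exposure at 37 degree C, 5% CO2. Cytotoxic call: curve class -1.1 to -2.4, maximum response >50%, AC50 < 10 uM, compared across KB-3-1 and P-gp-overexpressing KB-8-5-11.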"}, "[2]": {"tested_on": "Zika virus NS2B-NS3 protease", "assay": "Primary screen GU AMC qHTS for Zika virus inhibitors (AID 1347154); note: nearly all actives have a fitted effect of over 70% in size", "summary_of_the_method": "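Unlinked Zika NS2B hydrophilic domain–NS3 protease complex at 25 nM in 10 mM Tris-HCl pH 8.0, 0.01% Tween 20, with an AMC peptide substrate. Fluorescence change (340/450 nm) over 15 min at room temperature, normalized to controls, fitted to 4-parameter Hill.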"}, "[3]": {"assay": "qHTS to identify inhibitors of the type 1 interferon - major histocompatibility complex class I in skeletal muscle: primary screen against the NCATS Mechanism Interrogation Plate v5.0 (MIPE) Libary (AID 1347411); note: nearly all actives have a fitted effect of over 65% in size", "details": "iHSKM cells + IFN-b, HiBiT-tagged MHC-I luminescence, 24 h; activity change, negative = inhibition: at 45.8 µM (top of the series) unless noted", "summary_of_the_method": "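IFN-beta-driven (4 ng/ml) HLA-B-HiBit expression in CRISPR-tagged C25cl48 myoblasts; compounds 11-pt, 1:3, max 46 uM, 24 hr exposure; lytic NanoLuc complementation luminescence.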"}, "[4]": {"target": "Phospholipid hydroperoxide glutathione peroxidase GPX4 (Homo sapiens) (UniProt P36969)", "sequence (P36969 whole entry, looked up)": "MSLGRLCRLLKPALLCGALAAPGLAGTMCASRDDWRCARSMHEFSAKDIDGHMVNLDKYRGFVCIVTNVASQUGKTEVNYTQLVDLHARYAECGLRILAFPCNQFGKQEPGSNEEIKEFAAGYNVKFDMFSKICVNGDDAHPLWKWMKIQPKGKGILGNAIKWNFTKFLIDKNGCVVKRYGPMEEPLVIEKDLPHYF", "assay": "Primary qHTS Assay for Inhibitors of Recombinant Selenoprotein Glutathione Peroxidase 4 (GPX4) (AID 1845192); note: nearly all actives have a fitted effect of over 65% in size", "details": "activity change, negative = inhibition: at 50 µM (top of the series) unless noted", "summary_of_the_method": "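Steps: GPX4 plus compound, 30 min RT; add GR/GSH/NADPH master mix; start with cumene hydroperoxide; read 340/450 nm fluorescence at 0 and 15 min. Finals were 200 nM GPX4, 1 mM GSH, 0.5 mM CHP, 0.5 mM NADPH, 100 nM GR.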"}, "[5]": {"assay": "P-glycoprotein substrates identified in KB-8-5-11 adenocarcinoma cell line, qHTS therapeutic library screen (AID 1346987); note: nearly all actives have a fitted effect of over 65% in size", "details": "activity change, negative = cytotoxicity: at 44.5 µM (top of the series)", "summary_of_the_method": "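Human cervical adenocarcinoma KB-8-5-11 cells, selected in colchicine to over-express P-gp and assayed without it, were exposed for 72 h to titrated compounds. An ATP-based luminescent viability signal gave AC50.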"}, "[6]": {"assay": "Primary qHTS for inhibitors of nuclear receptor binding SET domain protein 2 (NSD2) in an RCH-ACV wild type WT cells (2C) (AID 1645877); note: nearly all actives have a fitted effect of over 70% in size", "details": "activity change, negative = cell killing: at 44.9 µM (top of the series) unless noted"}, "[7]": {"assay": "Primary qHTS for inhibitors of nuclear receptor binding SET domain protein 2 (NSD2) in an isogenic RCH-ACV NSD2 p.E1099K mutant (9B) (AID 1645876); note: nearly all actives have a fitted effect of over 70% in size", "details": "activity change, negative = viability loss: at 44.9 µM (top of the series) unless noted"}},
  "note": "Inconclusive results, whose numbers are uncertain, are shown with a selection of clear calls. No potency is given beside an inconclusive call; the fits are too rough. Active and inactive are the calls of the source. Calls come from the whole dose curve; as a rule, active = well fitted curve in the direction sought with a large enough effect; inconclusive = small, poorly fitted or top-dose-only effect, or another doubt; inactive = no such curve, though single readings can be large; an effect the other way counts as inactive or inconclusive. Potency is the fitted concentration of half-maximal effect; tags give direction and shape of the fitted curve.",
  "data": [
    {"smiles": "Cc1cc(I)ccc1Nc1c(C(=O)NOCC2CC2)cc(F)c(F)c1F", "values": [
      {"measurement": "Potency", "setting": "[1]", "value": "active: 23.1 µM"},
      {"measurement": "Potency", "setting": "[2]", "value": "inconclusive [inhibitor, partial curve]"},
      {"measurement": "Potency", "setting": "[3]", "value": "inconclusive [inhibitor, partial curve]"},
      {"measurement": "Potency", "setting": "[4]", "value": "inconclusive [inhibitor, partial curve, poor fit]"}
    ]},
    {"smiles": "Cc1cc(-c2nc(C(=O)Nc3cn(C4CCOCC4)nc3C(N)=O)co2)ccn1", "values": [
      {"measurement": "Potency", "setting": "[1]", "value": "active: 16.4 µM"},
      {"measurement": "Potency", "setting": "[5]", "value": "inconclusive [inhibitor, single point]"},
      {"measurement": "Potency", "setting": "[6]", "value": "active: 16.4 µM"}
    ]},
    {"smiles": "CC(=O)Nc1ccc(C(=O)NC(C)(C)C)cc1", "values": [
      {"measurement": "Potency", "setting": "[1]", "value": "inactive"},
      {"measurement": "Potency", "setting": "[3]", "value": "inactive"},
      {"measurement": "Potency", "setting": "[4]", "value": "inconclusive [inhibitor, partial curve, poor fit]"}
    ]},
    {"smiles": "O=C1CCc2cc(S(=O)(=O)Nc3cccc(Cl)c3)ccc2N1", "values": [
      {"measurement": "Potency", "setting": "[1]", "value": "inconclusive [inhibitor, single point]"},
      {"measurement": "Potency", "setting": "[5]", "value": "inconclusive [inhibitor, single point]"},
      {"measurement": "Potency", "setting": "[7]", "value": "inactive"},
      {"measurement": "Potency", "setting": "[6]", "value": "inconclusive [inhibitor, single point]"}
    ]},
    {"smiles": "O=C1CCCC2=C1C(c1ccccc1I)N=C(Nc1nc3ccccc3o1)N2", "note": "(centres undefined)", "values": [
      {"measurement": "Potency", "setting": "[1]", "value": "inconclusive [inhibitor, single point]"},
      {"measurement": "Potency", "setting": "[5]", "value": "inconclusive [inhibitor, full curve]"},
      {"measurement": "Potency", "setting": "[7]", "value": "inconclusive [inhibitor, full curve]"},
      {"measurement": "Potency", "setting": "[6]", "value": "inconclusive [inhibitor, full curve, poor fit]"}
    ]},
    {"smiles": "O=C(O/N=C1\\c2ccccc2-c2nc3ccccc3nc21)c1ccco1", "values": [
      {"measurement": "Potency", "setting": "[1]", "value": "inconclusive [inhibitor, single point]"},
      {"measurement": "Potency", "setting": "[5]", "value": "inconclusive [inhibitor, single point]"},
      {"measurement": "Potency", "setting": "[6]", "value": "inconclusive [inhibitor, single point]"}
    ]},
    {"smiles": "c1ccc(-c2n[nH]c3c2oc2ccccc23)cc1", "values": [
      {"measurement": "Potency", "setting": "[1]", "value": "inconclusive [inhibitor, single point]"},
      {"measurement": "Potency", "setting": "[5]", "value": "inconclusive [inhibitor, single point]"},
      {"measurement": "Potency", "setting": "[7]", "value": "inconclusive [inhibitor, single point]"},
      {"measurement": "Potency", "setting": "[6]", "value": "inconclusive [inhibitor, single point]"}
    ]},
    {"smiles": "Cc1ccc(NS(=O)(=O)c2cc3c(cc2N[C@H](C)CO)NC(=O)CC3)cc1C", "values": [
      {"measurement": "Potency", "setting": "[1]", "value": "inconclusive [inhibitor, single point]"},
      {"measurement": "Potency", "setting": "[5]", "value": "inconclusive [inhibitor, single point]"},
      {"measurement": "Potency", "setting": "[7]", "value": "inconclusive [inhibitor, partial curve, poor fit]"},
      {"measurement": "Potency", "setting": "[6]", "value": "inconclusive [inhibitor, single point]"}
    ]}
  ]
}
